Experimental data published in the antibiotic and cytotoxicity screens of Wong et al. (2023).
This is one part of the list.

Assays:
[1] = tested on: HSkMC (human skeletal muscle cells); experiment: cytotoxicity call (relative viability < 0.9); conditions: 10 µM
[2] = tested on: HepG2; experiment: cytotoxicity call (relative viability < 0.9); conditions: 10 µM
[3] = tested on: S. aureus RN4220; experiment: growth inhibition call (relative growth <= 0.2); conditions: 50 µM

| Compound | cytotoxicity call [1] | cytotoxicity call [2] | growth inhibition call [3] |
| --- | --- | --- | --- |
| CCCCC[C@H](O)/C=C/[C@@H]1[C@H]2C/C(=C/CCCC(=O)O)O[C@@H]2C[C@H]1O | inactive | inactive | inactive |
| COc1ccc(NC(=O)N(C)C[C@H]2Oc3ccc(NS(=O)(=O)c4cn(C)cn4)cc3C(=O)N([C@@H](C)CO)C[C@@H]2C)cc1 | inactive | inactive | inactive |
| Cn1cnc(S(=O)(=O)N[C@@H]2CC[C@@H](CC(=O)N3CCN(c4ccccc4)CC3)O[C@H]2CO)c1 | inactive | inactive | inactive |
| C[C@H](CO)N1C[C@H](C)[C@H](CN(C)S(=O)(=O)c2ccccc2)Oc2ccc(NC(=O)Cc3ccccc3)cc2C1=O | inactive | inactive | inactive |
| Nc1ncccc1F | inactive | inactive | inactive |
| C[N+](C)(C)CCCCNC(=O)[C@H]1C[C@H]2C(=O)N3CCC[C@H]3C(=O)N2[C@H]1c1cccc(OCCO)c1 | inactive | active | inactive |
| CO[C@H]1CN(C)C(=O)c2ccc(NC(=O)C3CC3)cc2OC[C@H](C)N(C(=O)C2CCOCC2)C[C@H]1C | inactive | inactive | inactive |
| Cc1ccc(S(=O)(=O)N(C)C[C@H]2Oc3c(NC(=O)C4CCOCC4)cccc3C(=O)N([C@@H](C)CO)C[C@@H]2C)cc1 | inactive | inactive | inactive |
| C[C@@H]1CN([C@@H](C)CO)C(=O)c2cc(NC(=O)Cc3ccccc3)ccc2O[C@@H](C)CCCCO[C@@H]1CN(C)CC1CCCCC1 | inactive | inactive | inactive |
| C[C@H](CO)N1C[C@H](C)[C@H](CN(C)C(=O)Nc2ccccc2)OCCCC[C@H](C)Oc2ccc(NS(=O)(=O)c3ccc(F)cc3)cc2C1=O | inactive | inactive | inactive |
| CN1CCc2cccc3c2C1Cc1ccc(O)c(O)c1-3.Cl (stereo not given) | inactive | active | inactive |
| Cc1ccc(S(=O)(=O)N2C[C@H](O)COC[C@@H]3O[C@H](CC(=O)NCCN4CCCCC4)CC[C@H]32)cc1 | inactive | inactive | inactive |
| COc1ccc(C#Cc2ccc3c(c2)[C@]2(C(=O)N3)[C@H](c3ccc(O)cc3)N3[C@H](c4ccccc4)[C@H](c4ccccc4)OC(=O)[C@H]3[C@@H]2C(=O)N2CCCCCCC2)cc1 | inactive | inactive | inactive |
| COc1ccc(CN(C)C[C@H]2OCCCC[C@H](C)Oc3ccc(NS(=O)(=O)c4ccc(F)cc4)cc3C(=O)N([C@@H](C)CO)C[C@H]2C)cc1 | inactive | active | inactive |
| C[C@H](CO)N1C[C@H](C)[C@H](CN(C)C(=O)c2ccc(N3CCN(C)CC3)cc2)OCc2cn(nn2)CCCC1=O | inactive | inactive | inactive |
| CC(C)C#Cc1cnc2c(c1)C(=O)N([C@@H](C)CO)C[C@H](C)[C@H](CN(C)C(=O)c1ccc3c(c1)OCO3)O2 | inactive | inactive | inactive |
| COCC#Cc1ccc2c(c1)O[C@@H](CN(C)Cc1ccc(F)cc1)[C@@H](C)CN([C@H](C)CO)S2(=O)=O | inactive | inactive | inactive |
| Cc1noc(C)c1NC(=O)Nc1ccc2c(c1)CC(=O)N([C@H](C)CO)C[C@@H](C)[C@H](CN(C)S(=O)(=O)c1c(C)noc1C)O2 | inactive | inactive | inactive |
| O=C(N[C@H](c1ccc(F)cc1)c1ccc2ccccc2n1)C1CCN(CCOc2ccc(Cl)cc2Cl)CC1 | inactive | inactive | inactive |
| COc1ccc(CN(C)C[C@@H]2Oc3ccc(NS(C)(=O)=O)cc3C(=O)N([C@@H](C)CO)C[C@@H]2C)cc1 | inactive | inactive | inactive |
| C=CCOC(=O)[C@@H]1[C@H]2C(=O)O[C@H](c3ccccc3)[C@H](c3ccccc3)N2[C@H](c2ccc(OCCOC(=O)[C@@H]3C[C@@H]4C(=O)N5CCC[C@H]5C(=O)N4[C@@H]3c3cccc(OCCO)c3)cc2)[C@@]12C(=O)Nc1ccc(I)cc12 | inactive | inactive | inactive |
| COc1ccc(S(=O)(=O)N(C)C[C@@H]2Oc3c(NC(=O)C4CCOCC4)cccc3C(=O)N([C@H](C)CO)C[C@H]2C)cc1 | inactive | inactive | inactive |
| C[C@@H]1CN([C@@H](C)CO)C(=O)c2cc(C#CC3CCCCC3)cnc2O[C@H]1CN(C)C(=O)Cc1ccccn1 | inactive | inactive | inactive |
| C[C@@H]1CN([C@H](C)CO)C(=O)Cc2cc(NC(=O)Nc3ccc4c(c3)OCO4)ccc2O[C@H]1CN(C)C(=O)Nc1ccc(C(F)(F)F)cc1 | inactive | inactive | inactive |
| C[C@H](CO)N1C[C@H](C)[C@@H](CN(C)S(=O)(=O)c2ccc(Cl)cc2)Oc2c(cccc2N(C)C)C1=O | inactive | inactive | inactive |
| COCC(=O)N1C[C@H](C)[C@@H](OC)CN(C)C(=O)c2ccc(NC(=O)Nc3cccc(F)c3)cc2OC[C@@H]1C | inactive | inactive | inactive |
| C[C@@H]1CN([C@H](C)CO)C(=O)c2cc(NS(=O)(=O)c3ccc(Cl)cc3)ccc2O[C@@H](C)CCCCO[C@H]1CN(C)C(=O)C1CCCCC1 | inactive | active | inactive |
| COc1ccc(CN(C)C[C@@H]2OCCCC[C@H](C)Oc3ccc(NC(=O)Nc4ccc5c(c4)OCO5)cc3C(=O)N([C@@H](C)CO)C[C@@H]2C)cc1 | inactive | inactive | inactive |

| Compound | cytotoxicity call [1] | cytotoxicity call [2] | growth inhibition call [3] |
| --- | --- | --- | --- |
| C[C@H](CO)N1C[C@H](C)[C@H](CN(C)C(=O)Nc2ccc(F)cc2)Oc2ccc(NS(C)(=O)=O)cc2CC1=O | inactive | inactive | inactive |
| COCC#Cc1ccc2c(c1)O[C@@H](CN(C)Cc1ccccc1F)[C@H](C)CN([C@@H](C)CO)S2(=O)=O | inactive | inactive | inactive |
| COc1ccc(CN(C)C[C@H]2Oc3ccc(NS(C)(=O)=O)cc3CC(=O)N([C@@H](C)CO)C[C@H]2C)cc1 | inactive | inactive | inactive |
| C[C@H]1CN([C@@H](C)CO)C(=O)c2c(c3ccccc3n2C)-c2ccccc2CO[C@H]1CN(C)Cc1ccc2c(c1)OCCN2C | inactive | inactive | inactive |
| C[C@H](CO)N1C[C@H](C)[C@@H](CN(C)S(=O)(=O)c2cn(C)cn2)Oc2ccc(NC(=O)Nc3ccc4c(c3)OCO4)cc2CC1=O | inactive | inactive | inactive |
| COc1ccc(NC(=O)Nc2cccc3c2O[C@@H](CN(C)S(C)(=O)=O)[C@@H](C)CN([C@H](C)CO)C3=O)cc1 | inactive | inactive | inactive |
| Cc1noc(C)c1S(=O)(=O)Nc1ccc2c(c1)C(=O)N([C@@H](C)CO)C[C@@H](C)[C@H](CN(C)S(=O)(=O)c1cn(C)cn1)OCCCC[C@@H](C)O2 | inactive | inactive | inactive |
| Cn1c(=O)c2c(ncn2CC(=O)NS(=O)(=O)c2ccccc2)n(C)c1=O | inactive | inactive | inactive |
| Cc1cc(Oc2ccc3nc(COc4ccc(C[C@H]5SC(=O)NC5=O)cc4)n(C)c3c2)cc(C)c1N | inactive | inactive | inactive |
| COc1ccc(S(=O)(=O)N(C)C[C@@H]2Oc3ccc(NC(=O)Nc4cccc5ccccc45)cc3C(=O)N([C@H](C)CO)C[C@H]2C)cc1 | inactive | inactive | inactive |
| Cc1noc(C)c1S(=O)(=O)N(C)C[C@H]1OCCCC[C@@H](C)Oc2ccc(NS(C)(=O)=O)cc2C(=O)N([C@@H](C)CO)C[C@@H]1C | inactive | inactive | inactive |
| C[C@@H]1CN([C@H](C)CO)C(=O)Cc2cc(NS(=O)(=O)c3cn(C)cn3)ccc2O[C@@H]1CN(C)C(=O)Nc1ccc2c(c1)OCO2 | inactive | inactive | inactive |
| CC(C)NC(=O)N(C)C[C@H]1OCc2cn(nn2)CCCC(=O)N([C@@H](C)CO)C[C@H]1C | inactive | inactive | inactive |
| C[C@H](CO)N1C[C@H](C)[C@H](CN(C)S(C)(=O)=O)Oc2ccc(NC(=O)Nc3ccc(C(F)(F)F)cc3)cc2C1=O | inactive | inactive | inactive |
| Cc1cnc(N2C[C@H]3COC[C@@H]3C2)nc1 | inactive | inactive | inactive |
| C[C@@H]1CN([C@@H](C)CO)C(=O)Cc2cc(NC(=O)Nc3ccccc3)ccc2O[C@@H]1CN(C)C(=O)Nc1cccc2ccccc12 | inactive | inactive | inactive |
| COc1cc(OC)cc(C(=O)OCCN2CCCN(CCOC(=O)c3cc(OC)cc(OC)c3)CC2)c1 | inactive | inactive | inactive |
| C[C@@H]1CN([C@H](C)CO)C(=O)Cc2cc(NC(=O)CCCCCC(=O)Nc3ccccc3N)ccc2O[C@H]1CN(C)S(C)(=O)=O | inactive | inactive | inactive |
| C[C@@H]1CCCCO[C@H](CN(C)C(=O)Nc2ccccc2)[C@@H](C)CN([C@@H](C)CO)C(=O)c2cc(NS(=O)(=O)c3ccc(Cl)cc3)ccc2O1 | inactive | active | inactive |
| [Cl][Ca][Cl] | inactive | inactive | inactive |
| C[C@H]1CCCCO[C@H](CN(C)S(=O)(=O)c2ccc(F)cc2)[C@@H](C)CN([C@@H](C)CO)C(=O)c2cc(NC(=O)Nc3ccc4c(c3)OCO4)ccc2O1 | inactive | inactive | inactive |
| C[C@@H]1CN([C@@H](C)CO)C(=O)Cc2cc(NC(=O)C3CCCCC3)ccc2O[C@H]1CN(C)S(=O)(=O)c1cn(C)cn1 | inactive | inactive | inactive |
| CN1CCN(C(=O)c2ccc(N)cc2)CC1 | inactive | inactive | inactive |
| C[C@@H]1CN(C)C(=O)c2cccc(NC(=O)c3ccncc3)c2O[C@H]1CN(C)Cc1ccc(Oc2ccccc2)cc1 | inactive | inactive | inactive |
| Cc1cc(=O)[nH]c(=S)[nH]1 | inactive | inactive | inactive |
| C[C@H](CO)N1C[C@H](C)[C@@H](CN(C)C(=O)NC2CCCCC2)OCCCC[C@H](C)Oc2ccc(NC(=O)C3CCCCC3)cc2C1=O | inactive | inactive | inactive |
| COc1ccc(S(=O)(=O)Nc2ccc3c(c2)C(=O)N([C@@H](C)CO)C[C@@H](C)[C@H](CN(C)Cc2ccc(C(=O)Nc4ccccc4N)cc2)OCCCC[C@@H](C)O3)cc1 | inactive | inactive | inactive |
